Measured values taken from the supplement of paper PMC12217912.
This is one part of the list. The full chains were built here from the parent and the listed change. Values near 0.05 are background.

B1: TEV protease; numbered along this chain (parent)
chain: MGESLFKGPRDYNPISSSICHLTNESDGHTTSLYGIGFGPFIITNKHLFRRNNGTLVVQSLHGVFKVKDTTTLQQHLVDGRDMIIIRMPKDFPPFPQKLKFREPQREERICLVTTNFQTKSMSSMVSDTSCTFPSGDGIFWKHWIQTKDGQCGSPLVSTRDGFIVGIHSASNFTNTNNYFTSVPKNFMELLTNQEAQQWVSGWRLNADSVLWGGHKVFMVKPEEPFQPVKEATQL

Variants of: B1
Experiment: raw area under fraction-flipped curve 0-4 h after induction (AUC4h, not background-subtracted), DNA-recorder readout of cleavage of the substrate (dimensionless); higher = more cleavage of the substrate by the protease variant
Conditions: temperature: 34 °C; time window: 0-4 h after rhamnose induction
Experimental: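 In vivo DNA recorder in E. coli TOP10(DE3) ΔrhaA at 34 °C. Each TEVp single-site mutant (parent TEVp 0) is paired with a single-site variant of the 7-mer TEVs (canonical ENLYFQ|S). The substrate sits between flexible linkers in a Bxb1-sfGFP-TEVs-SsrA fusion, so cleavage stabilises Bxb1 and speeds flipping of a recombination array, read by NGS. The value is the raw area under the fraction-flipped curve over 0-4 h after rhamnose induction (AUC4h), with ≥20 reads per time point. It is not background-subtracted; inactive controls average about 0.047.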
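Also: Bxb1 expression induced with 0.2% (w/v) L-rhamnose at OD600 near 0.5, cultures sampled hourly, flipped fraction per protease–substrate barcode pair counted by paired-end Illumina sequencing.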

Variant	area with substrate ENLYFAS	area with substrate ENLYFCS	area with substrate ENLYFES	area with substrate ENLYFFS	area with substrate ENLYFGS	area with substrate ENLYFHS	area with substrate ENLYFIS	area with substrate ENLYFKS	area with substrate ENLYFLS	area with substrate ENLYFMS	area with substrate ENLYFNS	area with substrate ENLYFPS	area with substrate ENLYFRS	area with substrate ENLYFSS	area with substrate ENLYFTS	area with substrate ENLYFVS	area with substrate ENLYFWS	area with substrate ENLYFYS	area with substrate ENLYFDS
E3G	0.061	0.0707	0.0647	0.0587	0.0626	0.0561	0.0532	0.069	0.0633	0.0678	0.0645	0.0606	0.0552	0.0586	0.0593	0.0691	0.0706		
T176L	0.0747	0.0619		0.0663		0.0592	0.0357		0.0673	0.0525	0.0594	0.0534	0.0491	0.057	0.0582	0.0552	0.0732	0.061	
L156K	0.0644	0.0643	0.0546	0.0617	0.0482	0.0538	0.0491	0.0525	0.0622		0.0595	0.0553	0.0514	0.0502	0.0516		0.0538		0.0731
K68F	0.062			0.0476		0.0716	0.0634					0.0595							
L33Q	0.0715	0.0641		0.0703		0.0652	0.0612	0.0637	0.0536	0.0655	0.0431	0.0514	0.0567	0.058	0.065	0.0524			0.0396
S169N	0.0567	0.0544	0.0665	0.0643		0.0731	0.0516			0.0545		0.0523	0.0614		0.0464	0.0636	0.0531		0.0552
V157R	0.049	0.0565	0.0552	0.0668	0.0723	0.0438	0.0594	0.0593		0.0612	0.0346	0.06	0.0552	0.0535	0.0548	0.0495	0.0578		0.0723
E224T	0.0546		0.0656	0.064		0.0641	0.0512		0.0616	0.055	0.0598	0.0595	0.0638	0.0474	0.0663	0.0609	0.0681		0.0613
I43V	0.0416	0.0548		0.082	0.0493	0.0544	0.0503	0.0573	0.0453		0.0697	0.0566	0.0509	0.0738	0.0631	0.0593	0.0538	0.0538	
F140I	0.0568	0.0656	0.0602	0.07			0.0565	0.0492	0.0567	0.0598	0.0551	0.0622	0.0529	0.0625	0.0413	0.0123			0.0561
V217H	0.0609		0.055	0.0682	0.0616		0.0503	0.0591		0.0666		0.0635		0.0606		0.061	0.0411		
E224P	0.0376	0.0629		0.0496		0.0674	0.0319	0.0599		0.0651		0.0595		0.0672	0.0647	0.0468			0.0229
